# In all, about 94,000 compounds went through this assay and about 6,200 (6.6%) were called active. This list was built around the results that the source calls inconclusive (neither active nor inactive); the mix of calls is not that of the screen. Calls come from the whole dose curve; as a rule, active = well fitted inhibition curve with a large enough effect; inconclusive = small, poorly fitted or top-dose-only effect; inactive = flat fitted curve, though single readings scatter. Where the call is inconclusive, the potency comes from a doubtful curve fit.
# Assay: Cytotoxic Profiling in HEK 293 Cell Line of Diverse Libraries Using Quantitative High-Throughput Screening; note: nearly all actives have a fitted effect of over 60% in size
# Settings: HEK 293 viability, ATP luminescence (CellTiter-Glo), 48-72 h; series mostly up to 115 µM
# In short: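 Read-out: CellTiter-Glo ATP luminescence. Cells: HEK 293, 250 cells/well. Exposure: 48 or 72 hr, 37 degree Celsius.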
# Potency is the fitted concentration of half-maximal effect; tags give direction and shape of the fitted curve.
row,Structure (SMILES),Potency
1,CN(C(=O)Cc1ccc(F)cc1)C1CCCc2ccccc21 (centres undefined),active: 100 µM
2,CC1=C[C@@H](CNS(C)(=O)=O)[C@H](C(C)C)C[C@H]1CC(=O)Nc1ccccn1,"inconclusive: 126 µM [inhibitor, single point]"
3,CCN1CC2(CCC1=O)CCN(CCS(=O)(=O)c1ccccc1)CC2,"inconclusive: 89.1 µM [inhibitor, single point]"
4,N#Cc1ccc(CN2CC[C@H](c3nnc(-c4ccccc4)o3)C2)cc1,"inconclusive: 100 µM [inhibitor, partial curve]"
5,CCN1C(=O)C2CC3(CCN(C4CCCCC4)CC3)CN2C1=O (centres undefined),inactive
6,O=C(Nc1cccc(-c2ccc(N3CCCC3)nn2)c1)Nc1cc(F)ccc1F,"inconclusive: 63.1 µM [inhibitor, partial curve, poor fit]"
7,COc1ccc(NC(=O)c2ccc3c(c2)N(C)C2CCCCCN2C3=O)cc1OC (centres undefined),"inconclusive: 44.7 µM [inhibitor, partial curve, poor fit]"
8,COc1ccc(OC)c(-c2nc3cc4c(cc3cc2CN2CCCOCC2)OCO4)c1,"inconclusive: 89.1 µM [inhibitor, single point]"
9,Cc1cc2cc(-c3c(C)noc3C)nc(-c3cccc([S+](C)(=O)[O-])c3)c2o1,"inconclusive: 50.1 µM [inhibitor, full curve, poor fit]"
10,CC(C)=CCC1(CO)CCCN(c2ccnc(N)n2)C1 (centres undefined),"inconclusive: 17.8 µM [inhibitor, full curve, poor fit]"
11,COc1cccc(C(=O)Nc2cc(C3CCCC3)nn2C)c1,"inconclusive: 100 µM [inhibitor, partial curve]"
12,COc1ccc(-c2noc([C@@H]3C[C@@H](O)CN3Cc3ccccn3)n2)cc1,"inconclusive: 50.1 µM [inhibitor, partial curve, poor fit]"
13,C[S+](=O)([O-])N1CC2(Cc3ccccc31)CN(C(=O)Nc1ccccc1)C2,"inconclusive: 39.8 µM [inhibitor, single point]"
14,O=C(c1ccc(Cl)cc1)N1CCC2(CC1)CC(c1cccnc1)=NO2,inactive
15,COc1ccc(C(=O)Nc2ccc(-c3noc([C@@H]4CCCN4C)n3)cn2)cc1,"inconclusive: 89.1 µM [inhibitor, partial curve, poor fit]"
16,O=C(NCc1ccc(C(F)(F)F)cc1)C1CCN(Cc2ccccc2-c2ccccc2F)CC1,"inconclusive: 22.4 µM [inhibitor, full curve, poor fit]"
17,OC1CC(c2cc(NCCSC3CCCCC3)ncn2)C1 (centres undefined),"inconclusive: 39.8 µM [inhibitor, partial curve]"
18,Cc1oc(C(O)c2ccccc2F)nc1C(=O)Nc1ccc(N2CCOCC2)cc1 (centres undefined),"inconclusive: 100 µM [inhibitor, partial curve]"
19,CS(=O)(=O)c1ccc(CN2CCOC[C@H]2c2ncc(-c3ccc(Cl)s3)[nH]2)cc1,"inconclusive: 31.6 µM [inhibitor, partial curve]"
20,O=C(c1ccc(-c2cccc(F)c2)nc1)N1CCCC(c2ccccc2)CC1 (centres undefined),"inconclusive: 56.2 µM [inhibitor, partial curve, poor fit]"

row,Structure (SMILES),Potency
1,CN1CCCN(C(=O)Cc2ccccc2F)c2ccccc21,"inconclusive: 35.5 µM [inhibitor, partial curve, poor fit]"
2,O=C(c1cn[nH]c1-c1ccc(F)cc1)N1CCC2(CC1)CC(O)CCO2 (centres undefined),"inconclusive: 89.1 µM [inhibitor, single point]"
3,Fc1ccc(-c2ccnc3nc(C4CCC4)nn23)cc1,"inconclusive: 63.1 µM [inhibitor, partial curve, poor fit]"
4,O=C(Cc1c[nH]c2ncc(-c3ccc(F)c(Cl)c3)cc12)NCc1cccnc1,"inconclusive: 56.2 µM [inhibitor, partial curve, poor fit]"
5,O=C(C1CCCN1C(=O)C1CCCC1)N1CCC(c2nc3ccncc3[nH]2)CC1 (centres undefined),inactive
6,O=C(c1ccoc1)N1CCCCCC1c1nc(C2CC2)no1 (centres undefined),inactive
7,COc1ccccc1Nc1ccnc(N2CCN(C(=O)c3ccc(Cl)nc3)CC2)n1,"inconclusive: 14.1 µM [inhibitor, partial curve, poor fit]"
8,CSc1ccc(-c2cccc(CN3CCC(N[S+](C)(=O)[O-])CC3)c2)cc1,"inconclusive: 50.1 µM [inhibitor, partial curve, poor fit]"
9,COc1ccccc1Nc1ccnc(N2CCN([S+](=O)([O-])c3c(C)noc3C)CC2)n1,"inconclusive: 20 µM [inhibitor, full curve, poor fit]"
10,CCC#CCN1Cc2cc(OC)ccc2N(CC(O)Cc2ccccc2)CCC1=O (centres undefined),"inconclusive: 79.4 µM [inhibitor, partial curve, poor fit]"
11,COCC(=O)NCCNC(=O)c1ccc(-c2cccc(OC)c2)cc1,"inconclusive: 70.8 µM [inhibitor, partial curve, poor fit]"
12,COc1ccc(C2Cn3nnc(C(=O)N4CCN(C(=O)c5ccc(C)cc5)CC4)c3CO2)cc1 (centres undefined),"inconclusive: 50.1 µM [inhibitor, partial curve, poor fit]"
13,Cc1cccc(Cl)c1NC(=O)Cn1ccn2nc(-c3ccc(F)cc3)c(CO)c2c1=O,"inconclusive: 35.5 µM [inhibitor, single point]"
14,Cn1ncc2c(C(=O)NCc3cccc(Cl)c3)cc(-c3ccc(F)cc3)nc21,active: 35.5 µM
15,O=C(NC1CCCCC1)c1nc2sccn2c1-c1ccc(C(F)(F)F)cc1,"inconclusive: 44.7 µM [inhibitor, partial curve, poor fit]"
16,CNC(=O)[C@@H]1CN(C(=O)Cn2c(=O)oc3ccccc32)C[C@H]1c1nc(C)no1,inactive
17,CCCOc1ccc(Cl)cc1CNC(=O)C1CCN(CC(N)=O)CC1,inactive
18,O=C(Nc1ccccc1F)N1CCN(c2ccc3nnc(-c4ccccc4)n3n2)CC1,inactive
19,COc1ccc(CN(C)C2CCCN(CCc3ccccc3)C2)cc1F (centres undefined),"inconclusive: 79.4 µM [inhibitor, partial curve, poor fit]"
